Results: the supplement of paper PMC4604168 (melanoma cell lines)
Some of the results follow. Repeats are few or missing, and single values can be far off.

Test system: WM1716
Test: cell count relative to DMSO control; melanoma cells; higher = more viable cells
Conditions: library dose: low library concentration; 72 h
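Also: cell number obtained by counting DAPI-stained nuclei in high-throughput microscope images with image analysis software, screen run in 1,536-well plates.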

| Structure (SMILES) | cell count [%] |
| --- | --- |
| COCC[n+]1c2c(n(Cc3cnccn3)c1C)C(=O)c1ccccc1C2=O + O=S(=O)(c1ccccc1)N(CC(F)(F)F)c1ccc(C(O)(C(F)(F)F)C(F)(F)F)cc1 [T0901317] (first compound 0.0004 µM, partner dose 1.4 µM) | 89 |
| Nc1cccc2c1CN(C1CCC(=O)NC1=O)C2=O (centres undefined) [lenalidomide] + NCC(=O)Nc1ccc(-n2nc(C(F)(F)F)cc2-c2ccc3c(ccc4ccccc43)c2)cc1 [OSU03012] (first compound 1 µM, partner dose 1 µM) | 90.2 |
| Clc1ccc(Nc2nnc(Cc3ccncc3)c3ccccc23)cc1 [vatalanib] + CN(NC(=O)CC(=O)NN(C)C(=S)c1ccccc1)C(=S)c1ccccc1 [STA4783] (first compound 2 µM, partner dose 0.006 µM) | 98.3 |
| Clc1ccc(Nc2nnc(Cc3ccncc3)c3ccccc23)cc1 [vatalanib] + C[C@@H]1CCN(C(=O)CC#N)C[C@@H]1N(C)c1ncnc2[nH]ccc12 [CP690550] (first compound 2 µM, partner dose 1 µM) | 101 |
| Cn1c(Nc2ccc(C(F)(F)F)cc2)nc2cc(Oc3ccnc(-c4ncc(C(F)(F)F)[nH]4)c3)ccc21 + OCCn1cc(-c2cnc3nnn(Cc4ccc5ncccc5c4)c3n2)cn1 [PF04217903] (first compound 0.08 µM, partner dose 1 µM) | 90.4 |
| Cn1c(Nc2ccc(C(F)(F)F)cc2)nc2cc(Oc3ccnc(-c4ncc(C(F)(F)F)[nH]4)c3)ccc21 + O=C(Nc1ccccc1)c1cc([N+](=O)[O-])ccc1Cl [GW9662] (first compound 0.08 µM, partner dose 2 µM) | 82.5 |
| OCc1c[nH]c2ccccc12 [Indole-3-carbinol] + C=CCn1c(=O)c2cnc(Nc3ccc(N4CCN(C)CC4)cc3)nc2n1-c1cccc(C(C)(C)O)n1 [MK1775] (first compound 0.8 µM, partner dose 0.02 µM) | 88.9 |
| OCc1c[nH]c2ccccc12 [Indole-3-carbinol] + CN(NC(=O)CC(=O)NN(C)C(=S)c1ccccc1)C(=S)c1ccccc1 [STA4783] (first compound 0.8 µM, partner dose 0.006 µM) | 76 |
| OCc1c[nH]c2ccccc12 [Indole-3-carbinol] + C[C@@H]1CCN(C(=O)CC#N)C[C@@H]1N(C)c1ncnc2[nH]ccc12 [CP690550] (first compound 0.8 µM, partner dose 1 µM) | 90.7 |
| C#Cc1cccc(Nc2ncnc3cc(OCCOC)c(OCCOC)cc23)c1 [erlotinib] + OCCn1cc(-c2cnc3nnn(Cc4ccc5ncccc5c4)c3n2)cn1 [PF04217903] (first compound 0.8 µM, partner dose 1 µM) | 72.2 |
| COCC[n+]1c2c(n(Cc3cnccn3)c1C)C(=O)c1ccccc1C2=O + CO[C@@H]1[C@H](N(C)C(=O)c2ccccc2)C[C@H]2O[C@]1(C)n1c3ccccc3c3c4c(c5c6ccccc6n2c5c31)C(=O)NC4 [Midostaurin] (first compound 0.0004 µM, partner dose 0.08 µM) | 72.9 |
| O=C(CCCCCCC(=O)Nc1ccccc1)NO [vorinostat] + O=C(O)c1ccc(-c2c[nH]c3ncc(-c4ccccc4)cc23)cc1C1CCCC1 [GSK650394] (first compound 0.08 µM, partner dose 0.16 µM) | 111 |
| COCC[n+]1c2c(n(Cc3cnccn3)c1C)C(=O)c1ccccc1C2=O + O=C(Nc1cccc(Cl)c1)Nc1ncc(CCNc2ncnc3ccsc23)s1 [SNS314] (first compound 0.0004 µM, partner dose 0.0008 µM) | 101 |
| OCc1c[nH]c2ccccc12 [Indole-3-carbinol] + NC(=O)Nc1cc(-c2cccc(F)c2)sc1C(=O)N[C@H]1CCCNC1 [AZD7762] (first compound 0.8 µM, partner dose 0.02 µM) | 92.7 |
| OCc1c[nH]c2ccccc12 [Indole-3-carbinol] + O=C(O)C(=O)Nc1sc2c(c1C(=O)O)CCNC2 [TCS401] (first compound 0.8 µM, partner dose 1.66667 µM) | 115 |
| Clc1ccc(Nc2nnc(Cc3ccncc3)c3ccccc23)cc1 [vatalanib] + NCC(=O)Nc1ccc(-n2nc(C(F)(F)F)cc2-c2ccc3c(ccc4ccccc43)c2)cc1 [OSU03012] (first compound 2 µM, partner dose 1 µM) | 97.3 |

Test system: WM1745
Test: as above
Conditions: library dose: low library concentration; 72 h

| Structure (SMILES) | cell count [%] |
| --- | --- |
| COCC[n+]1c2c(n(Cc3cnccn3)c1C)C(=O)c1ccccc1C2=O + COc1cc2c(Oc3ccc4[nH]c(C)cc4c3F)ncnc2cc1OCCCN1CCCC1 [cediranib] (first compound 0.0004 µM, partner dose 0.4 µM) | 107 |
| O=C(CCCCCCC(=O)Nc1ccccc1)NO [vorinostat] + COc1ccc(COc2ccc(Cc3cnc(N)nc3N)cc2OC)cc1 [GW2580] (first compound 0.08 µM, partner dose 1 µM) | 120 |
| C#Cc1cccc(Nc2ncnc3cc(OCCOC)c(OCCOC)cc23)c1 [erlotinib] + O=C(O)C(=O)Nc1sc2c(c1C(=O)O)CCNC2 [TCS401] (first compound 0.8 µM, partner dose 1.66667 µM) | 74.2 |
| Cn1c(Nc2ccc(C(F)(F)F)cc2)nc2cc(Oc3ccnc(-c4ncc(C(F)(F)F)[nH]4)c3)ccc21 + COC(=O)c1sccc1S(=O)(=O)Nc1ccc(Nc2ccccc2)cc1OC [GSK0660] (first compound 0.08 µM, partner dose 1 µM) | 63.3 |
| COCC[n+]1c2c(n(Cc3cnccn3)c1C)C(=O)c1ccccc1C2=O + Nc1cccc2c1CN(C1CCC(=O)NC1=O)C2=O [lenalidomide] (first compound 0.0004 µM, partner dose 1 µM) | 89.5 |
| Cn1c(Nc2ccc(C(F)(F)F)cc2)nc2cc(Oc3ccnc(-c4ncc(C(F)(F)F)[nH]4)c3)ccc21 + COCC[n+]1c2c(n(Cc3cnccn3)c1C)C(=O)c1ccccc1C2=O [YM155] (first compound 0.08 µM, partner dose 0.0004 µM) | 68.9 |
| O=C(CCCCCCC(=O)Nc1ccccc1)NO [vorinostat] + NCC(=O)Nc1ccc(-n2nc(C(F)(F)F)cc2-c2ccc3c(ccc4ccccc43)c2)cc1 [OSU03012] (first compound 0.08 µM, partner dose 1 µM) | 104 |
| Cn1c(Nc2ccc(C(F)(F)F)cc2)nc2cc(Oc3ccnc(-c4ncc(C(F)(F)F)[nH]4)c3)ccc21 + O=C(CCCCCCC(=O)Nc1ccccc1)NO [vorinostat] (first compound 0.08 µM, partner dose 0.08 µM) | 73.9 |
| Nc1cccc2c1CN(C1CCC(=O)NC1=O)C2=O (centres undefined) [lenalidomide] + CN(NC(=O)CC(=O)NN(C)C(=S)c1ccccc1)C(=S)c1ccccc1 [STA4783] (first compound 1 µM, partner dose 0.006 µM) | 41.9 |
| C#Cc1cccc(Nc2ncnc3cc(OCCOC)c(OCCOC)cc23)c1 [erlotinib] + COc1cc2ncnc(Nc3ccc(Oc4ccccc4)cc3)c2cc1OC [SrcI1] (first compound 0.8 µM, partner dose 2 µM) | 69.2 |
| Cn1c(Nc2ccc(C(F)(F)F)cc2)nc2cc(Oc3ccnc(-c4ncc(C(F)(F)F)[nH]4)c3)ccc21 + Cc1ccc(NC(=O)c2cccc(N(C)C)c2)cc1NC(=O)c1ccc(O)cc1 [ZM336372] (first compound 0.08 µM, partner dose 2 µM) | 64.1 |
| Clc1ccc(Nc2nnc(Cc3ccncc3)c3ccccc23)cc1 [vatalanib] + CCCCCCCCCCCC1=C(O)C(=O)C=C(O)C1=O [Embelin] (first compound 2 µM, partner dose 1.2 µM) | 96.7 |
| Nc1cccc2c1CN(C1CCC(=O)NC1=O)C2=O (centres undefined) [lenalidomide] + O=C(CCCCCCC(=O)Nc1ccccc1)NO [vorinostat] (first compound 1 µM, partner dose 0.08 µM) | 109 |
| O=C(CCCCCCC(=O)Nc1ccccc1)NO [vorinostat] + O=S(=O)(c1ccccc1)N(CC(F)(F)F)c1ccc(C(O)(C(F)(F)F)C(F)(F)F)cc1 [T0901317] (first compound 0.08 µM, partner dose 1.4 µM) | 73.9 |
| OCc1c[nH]c2ccccc12 [Indole-3-carbinol] + COCC[n+]1c2c(n(Cc3cnccn3)c1C)C(=O)c1ccccc1C2=O [YM155] (first compound 0.8 µM, partner dose 0.0004 µM) | 98.5 |
| COCC[n+]1c2c(n(Cc3cnccn3)c1C)C(=O)c1ccccc1C2=O + C=CCn1c(=O)c2cnc(Nc3ccc(N4CCN(C)CC4)cc3)nc2n1-c1cccc(C(C)(C)O)n1 [MK1775] (first compound 0.0004 µM, partner dose 0.02 µM) | 110 |
| C#Cc1cccc(Nc2ncnc3cc(OCCOC)c(OCCOC)cc23)c1 [erlotinib] + COCC[n+]1c2c(n(Cc3cnccn3)c1C)C(=O)c1ccccc1C2=O [YM155] (first compound 0.8 µM, partner dose 0.0004 µM) | 77.5 |
| C#Cc1cccc(Nc2ncnc3cc(OCCOC)c(OCCOC)cc23)c1 [erlotinib] + Cc1nc(Nc2ncc(C(=O)Nc3c(C)cccc3Cl)s2)cc(N2CCN(CCO)CC2)n1 [dasatanib] (first compound 0.8 µM, partner dose 0.004 µM) | 70.5 |
